According to PubChem BioAssay AID624417 (National Center for Advancing Translational Sciences (NCATS), 2012):
Hit rate of the full screen: of about 410,000 compounds, about 6,400 (1.6%) were called active. The inconclusive results got no clear call from the source; some entries with a clear call stand among them for comparison. The call rests on the fitted dose curve; in most records, active means well fitted inhibition curve with a large enough effect; inconclusive means small, poorly fitted or top-dose-only effect; inactive means no such curve, though single readings can be large or run the other way. Potencies of inconclusive entries are left out as doubtful fits.

Target: Glucagon-like peptide 1 receptor (Homo sapiens) (UniProt P43220)
UniProt P43220, sequence (P43220 whole entry, looked up): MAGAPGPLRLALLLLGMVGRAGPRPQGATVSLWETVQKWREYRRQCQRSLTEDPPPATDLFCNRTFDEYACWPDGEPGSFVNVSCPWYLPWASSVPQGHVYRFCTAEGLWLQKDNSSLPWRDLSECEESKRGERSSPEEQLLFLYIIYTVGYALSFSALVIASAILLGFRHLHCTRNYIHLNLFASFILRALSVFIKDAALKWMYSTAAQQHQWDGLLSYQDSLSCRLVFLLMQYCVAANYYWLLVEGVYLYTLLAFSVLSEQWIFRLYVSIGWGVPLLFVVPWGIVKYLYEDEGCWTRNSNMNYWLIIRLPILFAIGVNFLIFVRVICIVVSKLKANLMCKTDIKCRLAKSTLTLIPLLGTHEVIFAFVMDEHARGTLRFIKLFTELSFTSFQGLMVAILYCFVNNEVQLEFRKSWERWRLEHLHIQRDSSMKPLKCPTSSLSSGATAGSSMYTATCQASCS
Assay: qHTS of GLP-1 Receptor Inverse Agonists (Inhibition Mode); further: nearly all actives have a fitted effect of over 55% in size
Settings: HEK293 GLP-1R CRE-luciferase, luminescence, 24 h, GLP-1R form is constitutively active; activity change, negative = inhibition: at 38.3 µM (top of the series) unless noted
Method in brief: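 GLP-1R inverse agonism mode: basal reporter luminescence in engineered HEK293 cells measured after one day of compound exposure at 37 deg C, with a 12 min room-temperature detection step.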
On the % scale 0 is the no-effect control and ±100 the full control effect; potency means the concentration at half of the fitted maximal effect; tags describe the fitted curve by direction and shape.

Compound	Potency	activity change, negative = inhibition
COc1ccc(N=C2SCC(c3ccc([N+](=O)[O-])cc3)=NN2CCO)cc1	inconclusive [inhibitor, partial curve, poor fit]	–
Cc1ccc(Cl)cc1-n1ncc2c(NCCC3=CCCCC3)ncnc21	active: 8.91 µM	–
Cn1nnnc1SCC(=O)Nc1ccc(Cl)c(S(=O)(=O)N2CCOCC2)c1	–	inactive: -0.0507%
CC1=C(C#N)c2nc(N)c(C#N)c(C)c2/C1=C\c1ccc(OCC(=O)O)c(Cl)c1	–	inactive: -2.55%
CC(=O)Nc1ccc(NC(=O)c2nc(SCc3ccccc3C)ncc2Cl)cc1	inconclusive [inhibitor, partial curve, poor fit]	–
COc1cccc(OCc2cc(=O)n3cc(C)sc3n2)c1	–	inactive: 1.31%
CCCOc1ccc(-c2c(C(=O)N/N=C/c3ccsc3)nnn2-c2nonc2N)cc1	inconclusive [inhibitor, partial curve, poor fit]	–
Cc1c(NC(=O)Nc2ccc(Cl)c(C(F)(F)F)c2)c(=O)n(-c2ccccc2)n1C	–	inactive: -10.5%
O=c1oc2ccccc2cc1NCc1ccccc1O	inconclusive [inhibitor, single point]	–
CCOc1ccc(Nc2cc(C)nc3ccc(C)cc23)cc1	inconclusive [inhibitor, partial curve, poor fit]	–
Cc1c(C(=O)NC(Cc2ccccc2)c2nc3ccccc3[nH]2)cccc1[N+](=O)[O-] (stereo unspecified)	inconclusive [inhibitor, partial curve, poor fit]	–
CCOC(=O)N1CCC(NC(=O)CC(NS(=O)(=O)c2ccc(Cl)cc2)c2ccco2)CC1 (stereo unspecified)	–	inactive: -0.466%
COc1ccc(CCNC(=O)CCCOc2cccc(C)c2C)cc1OC	inconclusive [inhibitor, single point]	–
COc1cc(C(=O)NNC(=O)C2CC=CCC2C(=O)O)cc(OC)c1OC (stereo unspecified)	inconclusive [inhibitor, single point]	–
Cc1ccc(S(=O)(=O)CC(O)COc2ccccc2C#N)cc1 (stereo unspecified)	–	inactive: 5.14%
CC(C)(C)c1nc(SCC(=O)NCc2ccco2)c2ccccc2n1	inconclusive [inhibitor, partial curve, poor fit]	–
COc1ccc(C2c3c(ncn(CCN4CCOCC4)c3=N)Oc3ccc4ccccc4c32)cc1 (stereo unspecified)	inconclusive [inhibitor, single point]	–
O=C(NCCSCc1c(F)cccc1Cl)c1ccco1	inconclusive [inhibitor, partial curve]	–
O=C(CSc1ccccc1C(=O)O)c1ccc(Cl)cc1	–	inactive: -2.27%
CCOC(=O)c1[nH]c(C)c(C(=O)OCc2ccccc2F)c1C	inconclusive [inhibitor, full curve, poor fit]	–
Cc1cc(O)cc(O)c1C=NCc1ccco1	inconclusive [inhibitor, single point]	–

Compound	Potency	activity change, negative = inhibition
O=C(Nc1cccc(Cl)c1)c1cc(S(=O)(=O)N2CCCc3ccccc32)ccc1F	inconclusive [inhibitor, single point]	–
O=C1CSC(c2ccc(F)c(F)c2)N1c1ccccc1F (stereo unspecified)	inconclusive [inhibitor, partial curve, poor fit]	–
COC(=O)Cn1cnc2scc(-c3ccc(C)c(C)c3)c2c1=O	inconclusive [inhibitor, single point]	–
Cc1ncc(CN2CCCC(C(=O)Nc3ccc(-c4cccc(F)c4)cc3)C2)cn1 (stereo unspecified)	inconclusive [inhibitor, single point]	–
C=CCS(=O)(=O)N1CCCC(C(=O)c2cccc(Cl)c2)C1 (stereo unspecified)	inconclusive [inhibitor, partial curve, poor fit]	–
C=C(C)Cn1c(SCC(=O)N/N=C/c2cccc(O)c2)nc2ccccc2c1=O	inconclusive [inhibitor, single point]	–
Cc1ccc(NC(=O)c2ccc3c(c2)NC(=O)c2ccccc2S3)cc1	inconclusive [inhibitor, full curve, poor fit]	–
O=C(Nc1ccon1)c1ccc(N2CCCCC2)c([N+](=O)[O-])c1	–	inactive: 8.82%
COc1cc(C)ccc1OCCSc1nc2ccc(NC(=O)c3cccs3)cc2s1	inconclusive [inhibitor, partial curve, poor fit]	–
COc1ccc(CN(C(=O)c2ccco2)c2ccc(C)c(C)c2)cc1	inconclusive [inhibitor, partial curve, poor fit]	–
CCN1C(=O)[C@@H]2[C@@H](c3ccc(-c4ccccc4)cc3)N3CCCC[C@@]3(C(=O)OC)[C@@H]2C1=O	inconclusive [inhibitor, partial curve, poor fit]	–
Cc1ccc(C(=O)Nc2ccccc2C(=O)OCc2cc(=O)n3nc(C4CC4)sc3n2)cc1	–	inactive: 37.9%
CC(C)Cn1c(C(C)C)nc([N+](=O)[O-])c1Sc1ccc(Cl)cn1	inconclusive [inhibitor, single point]	–
Cc1oc(-c2ccc(Cl)cc2)nc1CN1CCCC(C(=O)NCCCN2CCOCC2)C1 (stereo unspecified)	inconclusive [inhibitor, partial curve, poor fit]	–
O=C(c1cnn(-c2ccc(Cl)cc2)c1)c1ccccc1O	inconclusive [inhibitor, partial curve, poor fit]	–
COc1cc(C)ccc1OCCCOc1c(Cl)cccc1Cl	inconclusive [inhibitor, single point]	–
CC(=O)C1=C(O)C(=O)N(CCc2c[nH]c3ccccc23)C1c1cccc(O)c1 (stereo unspecified)	–	inactive: -5.72%
Cc1ccc(-c2nc3cc(N)ccc3o2)c(C)c1	–	inactive: 0.357%
Fc1ccc(C2=NNC(=NCc3ccccc3)SC2)cc1F	inconclusive [inhibitor, single point]	–
COc1cc([C@@H]2c3cc4c(cc3[C@@H](O)[C@H]3COC(=O)[C@H]23)OCO4)cc(OC)c1O[Si](C)(C)C(C)(C)C	inconclusive [inhibitor, full curve, poor fit]	–
